The record followed here is paper PMC4336329 (PLoS ONE, 2015).

Structures are written as SMILES. The whole screen tested about 310,000 compounds, of which about 14,000 (4.5%) showed an effect of 50% or more. The effect is printed as a negative number. Some of the results follow.
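Note: peak tail current of the secondary pulse compared with the same well before compound.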

The target in this assay is human ether-à-go-go-related gene (hERG) potassium channel (human, UniProt Q12809). The assay can be described thus: primary screen, population patch clamp on CHO cells stably expressing hERG.
Chain of human ether-à-go-go-related gene (hERG) potassium channel (Q12809 whole entry, looked up): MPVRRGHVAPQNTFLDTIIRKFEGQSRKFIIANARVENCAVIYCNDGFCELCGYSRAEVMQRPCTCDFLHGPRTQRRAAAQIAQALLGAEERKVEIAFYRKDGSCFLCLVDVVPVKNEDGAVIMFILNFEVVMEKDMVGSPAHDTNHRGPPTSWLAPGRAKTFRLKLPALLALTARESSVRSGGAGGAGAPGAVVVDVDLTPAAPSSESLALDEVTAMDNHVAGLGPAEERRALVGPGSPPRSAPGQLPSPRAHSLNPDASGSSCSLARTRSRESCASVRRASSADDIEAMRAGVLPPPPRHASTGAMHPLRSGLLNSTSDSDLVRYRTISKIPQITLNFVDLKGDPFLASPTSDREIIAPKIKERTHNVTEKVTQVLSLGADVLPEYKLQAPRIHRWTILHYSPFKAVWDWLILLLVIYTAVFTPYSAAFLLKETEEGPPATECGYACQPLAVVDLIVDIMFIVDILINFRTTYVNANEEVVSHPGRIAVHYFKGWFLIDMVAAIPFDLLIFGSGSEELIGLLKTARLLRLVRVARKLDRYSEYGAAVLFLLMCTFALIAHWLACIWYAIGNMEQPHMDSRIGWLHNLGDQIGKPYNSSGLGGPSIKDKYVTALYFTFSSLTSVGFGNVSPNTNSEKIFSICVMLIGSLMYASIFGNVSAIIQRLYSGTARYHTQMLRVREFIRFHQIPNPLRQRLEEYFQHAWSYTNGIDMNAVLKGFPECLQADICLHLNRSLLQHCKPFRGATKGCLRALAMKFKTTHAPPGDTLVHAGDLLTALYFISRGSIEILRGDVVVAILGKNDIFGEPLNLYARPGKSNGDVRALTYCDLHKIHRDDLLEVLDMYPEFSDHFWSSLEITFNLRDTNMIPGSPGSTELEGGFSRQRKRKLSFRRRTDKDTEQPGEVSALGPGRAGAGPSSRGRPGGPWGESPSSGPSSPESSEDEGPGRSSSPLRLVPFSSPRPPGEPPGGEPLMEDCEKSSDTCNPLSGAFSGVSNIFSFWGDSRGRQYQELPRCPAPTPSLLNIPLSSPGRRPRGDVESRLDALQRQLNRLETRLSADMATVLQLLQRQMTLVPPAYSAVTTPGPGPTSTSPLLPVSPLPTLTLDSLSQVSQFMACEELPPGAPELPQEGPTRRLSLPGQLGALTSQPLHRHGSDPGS
As to `Cc1cccc(/C=C2\Sc3ccc(C(=O)N4CCOCC4)cc3N(C)C2=O)c1`, the “hERG current change (%, negative = inhibition) at 10uM” value was -40.7%. Take `COc1ccc(C(=O)Cc2ccc(OC)c(OC)c2)c(OC)c1`: the “hERG current change (%, negative = inhibition) at 10uM” value is on record as -0.547%. Take `O=c1c2c(n3cnnc3n1C1CCCCC1)-c1ccccc1CC21CCCCC1`: the “hERG current change (%, negative = inhibition) at 10uM” value is 6.54%. Take `Cc1cccc(CNS(=O)(=O)c2csc(C(N)=O)c2)c1`: the “hERG current change (%, negative = inhibition) at 10uM” value is 20%.

As for `O=C(Nc1ccc(S(=O)(=O)NCc2cccnc2)cc1)c1ccccc1Cl`, the “hERG current change (%, negative = inhibition) at 10uM” value is given as 8.33%. Regarding `CCN(CC)C(=O)C(=O)c1cc(C)n(-c2ccc(F)cc2)c1C`, the “hERG current change (%, negative = inhibition) at 10uM” value was 10.9%. Regarding `CCCCCC(=O)Nc1nc(C)c(-c2csc(Nc3ccc(Cl)cc3)n2)s1`, the “hERG current change (%, negative = inhibition) at 10uM” value is recorded as 6.11%.

As for `O=C1N(c2nncs2)CCN1[N+](=O)[O-]`, the “hERG current change (%, negative = inhibition) at 10uM” value is 17%. In the case of `CCCOc1cccc(C(=O)N(Cc2ccccc2)C2CCS(=O)(=O)C2)c1` (centres unmarked), the “hERG current change (%, negative = inhibition) at 10uM” value is given as -1.09%.

`COc1ccc(C2C3=C(CCCC3=O)N(CC(=O)O)C3=C2C(=O)CCC3)cc1Cl`: the “hERG current change (%, negative = inhibition) at 10uM” value turned out to be 23.8%. As for `C/C(=N\NC(=O)c1ccc([N+](=O)[O-])cc1)c1cccc([N+](=O)[O-])c1`, the “hERG current change (%, negative = inhibition) at 10uM” value was 5.82%. In the case of `CC1CCCCC1NC(=O)COn1nnc2ccc(Cl)cc21` (centres unmarked), the “hERG current change (%, negative = inhibition) at 10uM” value is listed as -14.3%.

With `CCC1Sc2ccc(S(=O)(=O)CCC(=O)Nc3ccccc3Cl)cc2NC1=O` (centres unmarked), the “hERG current change (%, negative = inhibition) at 10uM” value is 11.1%. With `Cc1ccc(NC(=O)Nc2nnc(-c3ccccc3)o2)cc1`, the “hERG current change (%, negative = inhibition) at 10uM” value came out at 16.9%. `CC1CCN(S(=O)(=O)N2CCCC(C(=O)NCc3ccccc3Cl)C2)CC1` (centres unmarked): the “hERG current change (%, negative = inhibition) at 10uM” value is reported as -5.93%. Turning to `Cc1cccc(Cc2cnc(N3C(=N)SC(C)C3=O)s2)c1` (centres unmarked), the “hERG current change (%, negative = inhibition) at 10uM” value was -5.9%. In the case of `CCC1CN(C(=O)N2CCC(C(=O)NCCc3ccccc3OC)CC2)c2ccccc2O1` (centres unmarked) it was -15.2%; in that of `CCCn1c(SCC(=O)Nc2cccc(NC(C)=O)c2)nnc1C(C)C`, 8.38%; in that of `CC(NS(=O)(=O)c1ccc(Cl)cc1)C(=O)NCc1ccco1` (centres unmarked), -5.76%. As to `Cc1cc(OCC(=O)N2CCC(C(=O)O)(c3ccccc3)CC2)c2c(C)c(C)c(=O)oc2c1`, the “hERG current change (%, negative = inhibition) at 10uM” value is on record as -0.248%. In the case of `COc1cccc(OCc2nnc(SCC(=O)N3c4ccccc4Sc4ccc(Cl)cc43)o2)c1` it was 13.8%; in that of `O=C(NCc1ccccn1)Nc1ccc(Cl)c(Cl)c1`, -18.6%; in that of `Cc1cc(SCC(=O)NCC2CCCO2)nc2ccccc12` (centres unmarked), -10.1%. Take `c1ccc2c(C3=NNC(=NC4CCCCC4)SC3)c[nH]c2c1`: the “hERG current change (%, negative = inhibition) at 10uM” value was -6.92%.

`CC1CCN(C(=O)c2ccc([N+](=O)[O-])o2)CC1`: the “hERG current change (%, negative = inhibition) at 10uM” value is 4.53%.

As to `CCOc1cc2[nH]c(=O)n(CCCCCC(=O)NC3CCCC3)c(=O)c2cc1OCC`, the “hERG current change (%, negative = inhibition) at 10uM” value is recorded as -0.581%. In the case of `COCCOC(=O)C1=C(C)Nc2ncnn2C1c1ccccc1` (centres unmarked) it was 1.22%; in that of `CCOc1ccc2[nH]c(=O)c(CN(CCO)C(=O)c3ccc(F)cc3)cc2c1`, 8.24%; in that of `CC(O)C(NS(=O)(=O)c1ccc(Cl)cc1)C(=O)OCC(=O)c1c[nH]c2ccccc12` (centres unmarked), 11.7%. To `Cc1cc(OCC(=O)NCCCN2CCOCC2)c2c(C)cc(=O)oc2c1` belongs -10.8%; to `CCC(C)NC(=O)C1CCN(c2nc(C)cc(C)n2)CC1` (centres unmarked), 1.92%; to `O=S(=O)(Nc1cccc(-c2ccc3nncn3n2)c1)c1cccs1`, -2.37%. `COCc1cc(C)nc2sc(C(=O)Nc3ccc(C(=O)OC)cc3)c(N)c12`: the “hERG current change (%, negative = inhibition) at 10uM” value is 6.97%. In the case of `CCCCN(CC)S(=O)(=O)c1ccc2c(c1)CCCN2C(C)=O`, the “hERG current change (%, negative = inhibition) at 10uM” value is -43.3%.

On to `CN(C(=O)c1ccncc1)c1nnc(-c2cnccn2)s1`, for which the “hERG current change (%, negative = inhibition) at 10uM” value amounted to 7.23%. Regarding `CCOc1ccc(N2CC(C(=O)Nc3ccc(OC)c(S(=O)(=O)N4CCCCC4)c3)CC2=O)cc1` (centres unmarked), the “hERG current change (%, negative = inhibition) at 10uM” value came out at 4.22%. To `COc1ccc(OC)c(CN2CCN(C(=O)c3cccs3)CC2)c1.O=C(O)C(=O)O` belongs -41.1%; to `COc1ccc(NC(=O)c2cccc(N3C(=O)C4C5C=CC(C5)C4C3=O)c2)cc1` (centres unmarked), 6.74%; to `CC(=O)OCC1=C(C(=O)O)N2C(=O)C(NC(=O)c3ccc(F)cc3)C2SC1` (centres unmarked), 8.23%.

In the case of `COc1ccc2cc(C(c3nnnn3C3CCCC3)N3CCc4ccccc4C3)c(=O)[nH]c2c1` (centres unmarked), the “hERG current change (%, negative = inhibition) at 10uM” value is given as -28.8%. `O=C(NC1CCCCC1)C1CCN(S(=O)(=O)c2cccs2)CC1`: the “hERG current change (%, negative = inhibition) at 10uM” value was determined as 15.9%. As to `Cn1ccs/c1=N\C(=O)Nc1cccc(C(F)(F)F)c1`, the “hERG current change (%, negative = inhibition) at 10uM” value is listed as -2.49%. Consider `CC(=O)NC(=O)Nc1sc(=S)n(C)c1C`, for which the “hERG current change (%, negative = inhibition) at 10uM” value was determined as 14.1%. On to `O=[N+]([O-])c1ccc2nc(-c3cccnc3)[nH]c2c1`, for which the “hERG current change (%, negative = inhibition) at 10uM” value is -12%.
